# Experimental data published in publication PMC4336329 (PLoS ONE, 2015).
# In all, about 310,000 compounds went through this assay and about 14,000 (4.5%) showed an effect of 50% or more. Effects have a minus sign here. Some of the results follow.
# Target: human ether-à-go-go-related gene (hERG) potassium channel (human, UniProt Q12809)
# Assay: primary screen, population patch clamp on CHO cells stably expressing hERG
# 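Also: peak tail current of the secondary pulse compared with the same well before compound.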
# human ether-à-go-go-related gene (hERG) potassium channel, sequence (Q12809 whole entry, looked up): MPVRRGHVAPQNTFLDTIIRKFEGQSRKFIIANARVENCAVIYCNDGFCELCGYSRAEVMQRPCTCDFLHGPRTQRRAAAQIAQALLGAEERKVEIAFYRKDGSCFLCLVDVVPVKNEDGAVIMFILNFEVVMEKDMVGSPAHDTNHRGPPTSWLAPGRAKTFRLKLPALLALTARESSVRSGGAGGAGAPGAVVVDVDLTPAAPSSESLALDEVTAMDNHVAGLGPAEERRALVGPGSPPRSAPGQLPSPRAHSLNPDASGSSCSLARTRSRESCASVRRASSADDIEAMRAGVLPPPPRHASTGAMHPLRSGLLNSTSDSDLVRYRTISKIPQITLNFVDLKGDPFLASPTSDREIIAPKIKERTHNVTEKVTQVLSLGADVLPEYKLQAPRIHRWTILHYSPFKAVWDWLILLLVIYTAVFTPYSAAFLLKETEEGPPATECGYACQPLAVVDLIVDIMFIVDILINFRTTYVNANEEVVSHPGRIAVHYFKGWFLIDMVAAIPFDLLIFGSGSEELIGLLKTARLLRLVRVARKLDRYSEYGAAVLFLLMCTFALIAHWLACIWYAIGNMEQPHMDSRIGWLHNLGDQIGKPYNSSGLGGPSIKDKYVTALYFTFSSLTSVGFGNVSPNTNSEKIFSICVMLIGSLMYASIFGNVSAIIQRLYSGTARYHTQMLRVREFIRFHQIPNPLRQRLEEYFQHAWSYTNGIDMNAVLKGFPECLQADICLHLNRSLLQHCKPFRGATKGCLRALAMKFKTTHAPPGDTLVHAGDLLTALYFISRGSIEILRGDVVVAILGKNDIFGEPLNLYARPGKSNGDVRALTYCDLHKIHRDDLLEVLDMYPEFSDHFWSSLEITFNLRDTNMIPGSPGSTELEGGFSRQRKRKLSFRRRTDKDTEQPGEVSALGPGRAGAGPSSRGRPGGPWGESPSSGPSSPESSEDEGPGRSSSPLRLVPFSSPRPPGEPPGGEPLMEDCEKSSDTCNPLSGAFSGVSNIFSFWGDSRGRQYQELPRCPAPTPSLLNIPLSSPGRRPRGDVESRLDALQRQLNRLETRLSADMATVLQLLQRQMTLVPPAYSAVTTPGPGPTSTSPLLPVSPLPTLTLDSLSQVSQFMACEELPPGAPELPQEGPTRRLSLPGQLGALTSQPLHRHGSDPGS
row,SMILES,"hERG current change (%, negative = inhibition) at 10uM [%]"
1,CN1C(=O)c2ccc(C(=O)NC3CCCCC3)cc2C1=O,11.2
2,Cc1cccc(NC(=O)c2nc[nH]c2C(=O)NCC(=O)OCc2ccccc2)c1,9.54
3,O=C(Cn1c(=O)oc2ccccc21)NC(=O)NCc1ccco1,17.1
4,COc1ccc(NC(=O)CCCSc2nc(-c3ccco3)cc(C(F)(F)F)n2)cc1OC,12.1
5,Cc1cc(C)nc(SCC(=O)Nc2ccnc3ccccc23)n1,11.1
6,COc1ccccc1-c1nnc(SC(C)C(=O)Nc2ccc(C(N)=O)cc2)o1 (centres unmarked),8.39
7,COc1ccc(NC(=O)COc2nc3ccccc3nc2N2CCOCC2)c(OC)c1,12.3
8,O=C(Nc1nc(-c2ccncc2)cs1)c1ccc(S(=O)(=O)N2CCOCC2)cc1,-0.166
9,CCOc1ccc(C2C(C(=O)c3ccc(C)o3)=C(O)C(=O)N2c2nc(C)c(C(=O)OC)s2)cc1 (centres unmarked),9.24
10,Nc1nc(SCC(=O)Nc2cc(C(F)(F)F)ccc2N2CCOCC2)n[nH]1,16.1
11,O=C(O)C1Sc2[nH]c(=O)sc2C2c3cc(Cl)ccc3OC(=O)C12 (centres unmarked),14.5
12,Cc1cc2oc(C(=O)NCc3ccccc3)cc(=O)c2cc1C,9.9
13,Oc1ccccc1N1CCN(c2ncnc3scc(-c4ccc(F)cc4)c23)CC1,6.31
14,CN(CCC#N)c1ncnc2scc(-c3ccccc3)c12,-26
15,COc1ccccc1NC(=O)CCC(=O)OCc1ccc([N+](=O)[O-])cc1,-44.8
16,CC(C)=C1C2CCC1C1C(=O)N(NC(=O)COc3ccc(C(C)(C)C)cc3)C(=O)C21 (centres unmarked),-1.58
17,COc1ccc(OC)c(NC(=O)CSc2nnc(-c3ccncc3)s2)c1,16
18,CC(=O)Nc1ccccc1NC(=O)C/C(C)=N/NC(=O)C1CCCCC1,18
19,O=C(Cc1cccs1)Nc1nnc(CCc2ccccc2)s1,5.44
20,COC(=O)c1ccccc1OP1(=O)COc2ccccc2OC1,18.3
21,COc1ccc2nc(/N=C(\N)NC(=O)Nc3ccccc3)nc(C)c2c1,-44.4
22,CCNC(=O)/C(=C\c1ccc2c(c1)OCO2)NC(=O)c1ccc(Br)cc1,-69.7

row,SMILES,"hERG current change (%, negative = inhibition) at 10uM [%]"
1,COc1ccc(OC)c(S(=O)(=O)Nc2cccc(F)c2)c1,-7.42
2,Cc1ccc(-c2nnc(OCCN3CCOCC3)c3ccccc23)cc1,-43.4
3,CCOC(=O)c1ccccc1NC(=O)/C=C/c1cc(OC)c(OC)c(OC)c1,-8.29
4,CNS(=O)(=O)c1cc(NC(C)=O)c(C)cc1C,6.26
5,COc1cc(C2c3c(oc4ccccc4c3=O)C(=O)N2c2nccs2)ccc1O (centres unmarked),22.9
6,Cc1c(C(=O)Nc2ccc3c(c2)OCCO3)sc2nc(-c3ccccc3)cn12,14.3
7,S=c1[nH]nc(CCc2ccc(Cl)cc2)o1,4.23
8,COc1ccc(/C=C/C(=O)c2ccccn2)cc1,21.4
9,CN(CC(=O)Nc1cccc(F)c1)C(=O)c1cccc(-n2cccc2)c1,-27.6
10,Cc1cc(C(=O)COC(=O)c2ccc(Cl)c(S(N)(=O)=O)c2)c(C)n1CC1CCCO1 (centres unmarked),-12.6
11,C=CCn1c(O)c(/C(C)=N/N2CCCCC2)c(=O)[nH]c1=O,12.7
12,C#CCOCCOCCOCCNc1nc(N2CCOCC2)nc(N2CCN(C(=O)CCCCCCCCCCNC(=O)[C@H](CO)n3cc(CCCCCN)nn3)CC2)n1,8.07
13,Cc1ccc(C(=O)Nc2nnc(NC(=S)Nc3ccccc3)s2)cc1,12.1
14,COc1ccc(CN2CCN(S(=O)(=O)c3ccc(F)cc3)CC2)c(OC)c1OC.O=C(O)C(=O)O,-23.4
15,N/C(=N\OC(=O)c1ccc(Cl)cc1)c1[nH]ncc1Br,-7.78
16,O=C(Nc1ccc(Br)cc1)c1cccc(S(=O)(=O)Nc2cnc3ccccc3c2)c1,8.99
17,COc1ccc(C(=O)NC(=S)Nc2cccc(Cl)c2N2CCOCC2)cc1[N+](=O)[O-],1.61
18,FC(F)(F)c1cc(CCN2CCNC[C@H]2Cc2cccc3ccccc23)cc(C(F)(F)F)c1,1.75
19,N/C(=N\OC(=O)CCCC(=O)O)c1ncc(C(F)(F)F)cc1Cl,14.7
20,CC(C)OCCCNC(=O)Cn1nc(-c2ccccc2)ccc1=O,-9.86
21,CC(C)CC(N=C1NC(C)(C)Cc2ccccc21)C(=O)O (centres unmarked),2.08
22,C/C=C1\COC(C(=O)NCc2ccccc2)(C(F)(F)F)C=C1C=C1CCCCC1 (centres unmarked),7.85
